Source: article PMC10483596 (Proceedings of the National Academy of Sciences of the …, 2023)

Target: the molecule itself
Test: SEC

B1: TRPV1-MBP fusion protein (maltose binding protein fused to the N terminus of TRPV1) (natural protein)
chain: MEQRASLDSEESESPPQENSCLDPPDRDPNCKPPPVKPHIFTTRSRTRLFGKGDSEEASPLDCPYEEGGLASCPIITVSSVLTIQRPGDGPASVRPSSQDSVSAGEKPPR[letters of about 250 residues left out]EPECRHLSRKFTEWAYGPVHSSLYDLSCIDTCEKNSVLEVIAYSSSETPNRHDMLLVEPLNRLLQDKWDRFVKRIFYFNFFVYCLYMIIFTAAAYYRPVEGLPPYKLKNTVGDYFRVTGEILSVSGGVYFFFRGIQYFLQRRPSLKSLFVDSYSEILFFVQSLFMLVSVVLYFSQRKEYVASMVFSLAMGWTNMLYYTRGFQQMGIYAVMIEKMILRDLCRFMFVYLVFLFGFSTAVVTLIEDGKNNSLPMESTPHKCRGSACKPGNSYNSLYSTCLELFKFTIGMGDLEFTENYDFKAVFIILLLAYVILTYILLLNMLIALMGETVNKIAQESKNIWKLQRAITILDTEKS[letters of about 120 residues left out]
- stoichiometry N: 4
